# Among all 110,000 compounds or so, about 40 (0.04%) were called active. The inconclusive results got no clear call from the source; some entries with a clear call stand among them for comparison. Calls come from the whole dose curve; as a rule, active = well fitted curve in the direction sought with a large enough effect in the signal ratio (not every such curve was filed as active); inconclusive = small, poorly fitted or top-dose-only effect, or a change in a side signal; inactive = flat fitted curve, though single readings scatter; the % refers to the signal ratio. A potency beside an inconclusive call is a rough fit, not a confirmed value.
# Assay: IkB Signaling;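 for IkBa stabilization activation: 0% = basal untreated cells and 100% = reference inhibitor full response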
# Conditions: ABC-DLBCL IkBa-CBG/CBR dual luciferase ratio (green luciferase fused to IkBa over red control in OCI-Ly3 lymphoma cells), 4 h; IkBa stabilization activation: at 57.1 µM (top of the series), scaled: untreated 0%, proteasome inhibitor 100% unless noted
# Procedure, shortened: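 Luminescence ratio of IκBα-fused green versus native red beetle luciferase in OCI-Ly3 cells, 4 h post-doxycycline with compound; red signal alone, scaled from basal (0%) to zero light (-100%), flagged nonspecific or cytotoxic effects.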
# Potency is the fitted concentration of half-maximal effect.
SMILES,IkBa stabilization activation,Potency
CNC[C@@H](SC)c1ccc(O)c(O)c1,"inactive: 1.24% [at 11.4 µM, scaled: untreated 0%, proteasome inhibitor 100%]",–
COc1cc2cc(CNc3ccccc3)c(=O)n(CC(=O)Nc3ccc(C)c(Cl)c3)c2cc1OC,inconclusive: 3.56% [signal inhibitor],–
Cc1ccc(C)c(NC(=O)c2nnn(Cc3ccccc3)c2N)c1,inconclusive: 2.7% [signal inhibitor],–
COCCN(Cc1ccco1)C(=O)c1cc2c(=O)[nH]c3ccc(C)cc3c2s1,inconclusive: 1.44% [signal inhibitor],–
COC(=O)c1ccc(NC(=O)CCCC(=O)OCC(=O)c2ccc(Cl)cc2)cc1,inconclusive: 14.9% [signal inhibitor],–
Cc1ccc(NC(=O)c2oc3ccc4c(c3c2C)C(=O)CC(C)(C)O4)c(C)c1,inactive: -0.864%,–
CCn1c(C(O)c2ccccc2)nc2ccccc21 (stereo not drawn),inactive: -0.539%,–
COc1ccc(CCNC(=O)c2cccc(Nc3nc4ccccc4nc3-n3nc(C)cc3C)c2)cc1OC,inconclusive: 3.37% [signal inhibitor],–
CCOc1c(Br)cc(C2CC(=O)Nc3cc4c(cc32)OCO4)cc1OC (stereo not drawn),–,"inconclusive: 31.6 µM [signal inhibitor, single point]"
COc1ccc(C2C=C(c3ccc(Cl)cc3)Nc3nc(-c4ccc(Cl)cc4)nn32)cc1 (stereo not drawn),inconclusive: 21.1% [signal inhibitor],–
O=C(CSc1n[nH]c(-c2ccc(F)cc2)n1)NCc1ccccc1Cl,inactive: -0.958%,–
CCOC(=O)Cn1c(=O)oc2cc(S(=O)(=O)N3CCN(c4cccc(C)c4)C(C)C3)ccc21 (stereo not drawn),inconclusive: 3.26% [signal inhibitor],–
CC(=O)Nc1ccc2nc3c(=O)n(C)c(=O)n(C)c3nc2c1C,inactive: 0.38%,–
N#CCc1nc(CSc2nc3ccccc3o2)cs1,inactive: 0.511%,–
CC(C)c1nn2c(=O)cc(COC(=O)c3cccs3)nc2s1,inactive: 30.5%,–
COc1cc(-c2nnc3sc(-c4ccccn4)nn23)cc(OC)c1OC,inactive: 0.596%,–
Cc1nc(-c2ccc(NC(=O)c3cccs3)cc2)cs1,–,"inconclusive: 15.8 µM [signal inhibitor, partial curve]"
CCc1ccc(CNC(=O)c2cnc3sc(N4CCOCC4)nn3c2=O)cc1,inactive: -2.68%,–
CCOC(=O)c1cc(C#N)c(N)nc1C,inactive: 1.58%,–
CC1=C(C(=O)OCc2ccc3c(c2)OCO3)C(c2ccc(F)cc2)NC(=O)N1 (stereo not drawn),inconclusive: 15.9% [signal inhibitor],–
CCC(=O)c1ccc(OCC(O)CN2CCN(c3cccc(C(F)(F)F)c3)CC2)cc1 (stereo not drawn),inconclusive: 8.2% [signal inhibitor],–
O=C1CCSC2(C(=O)N(Cc3ccc(F)cc3)c3ccccc32)N1c1ccc(Cl)cc1 (stereo not drawn),inconclusive: -3.82% [signal inhibitor],–

SMILES,IkBa stabilization activation,Potency
COc1ccc(Cl)cc1NC(=O)N1CCN(Cc2cc(=O)n3nc(-c4ccccc4)sc3n2)CC1,inconclusive: 2.75% [signal inhibitor],–
COc1cc(C2N(c3ccccc3)CCN2c2ccccc2)ccc1OC(C)=O,inactive: 1.07%,–
Cc1nnc(NC(=O)C2COc3ccccc3O2)s1 (stereo not drawn),–,"inconclusive: 20 µM [signal inhibitor, partial curve]"
COc1ccc(C(=O)COC(=O)c2cc(-c3cccs3)nc3ccccc23)cc1,inconclusive: 1.6% [signal inhibitor],–
Cc1cccc(N2CCN(S(=O)(=O)c3cc(C(=O)Nc4ccc(Oc5ccccc5)cc4)ccc3F)CC2)c1C,inconclusive: -0.344% [signal inhibitor],–
O=c1oc2ccccc2c(N2CCN(c3ccc(F)cc3)CC2)c1CN1CCCC1,–,inconclusive: 1 µM [signal inhibitor]
C=CCn1cnc2c(NCc3ccccc3)ncnc21,–,"inconclusive: 20 µM [signal inhibitor, partial curve]"
Cc1ccccc1NC(=O)Cn1c(=O)n(CCc2ccccc2)c(=O)c2ccccc21,inconclusive: 13% [signal inhibitor],–
COc1ccc(-c2nnc(SCC(=O)c3cc(C)n(Cc4cccs4)c3C)o2)cc1,inactive: 0.139%,–
COc1ccc(CNC(=O)C(C)n2nc(C)c3c(C)n(-c4ccccc4)nc3c2=O)c(OC)c1 (stereo not drawn),inactive: 2.88%,–
CCc1nn2c(=O)cc(COC(=O)c3ccccc3NC(=O)COc3ccc(C)c(C)c3)nc2s1,inconclusive: 12.3% [signal inhibitor],–
CCCCn1cc(S(=O)(=O)c2cc(C)ccc2C)c(=O)c2cc(F)c(F)cc21,inconclusive: 5.31% [signal inhibitor],–
COc1ccc(Br)cc1[C@@H]1Nc2ccc(C(=O)O)cc2[C@@H]2C=CC[C@@H]21,inconclusive: 11.7% [signal inhibitor],–
CCOC(=O)c1cccc(NC(=O)c2oc3c(c2C)-c2nn(CC)cc2CC3)c1,inactive: -0.798%,–
Cc1c(Cl)cccc1-n1ncc(C(=O)NC2CCCCC2)c1C1CCN(C(=O)OC(C)(C)C)CC1,inconclusive: 1.64% [signal inhibitor],–
CC(=O)OCC(=O)[C@@]12OC(C)(C)O[C@@H]1C[C@H]1[C@H]3C[C@H](F)C4=CC(=O)C=C[C@@]4(C)[C@]3(F)[C@H](O)C[C@@]12C,"inconclusive: 11.8% [signal activator] [at 25.6 µM, scaled: untreated 0%, proteasome inhibitor 100%]",–
CCOc1ccc(/C=C/c2nc(C#N)c(NC(C)c3ccccc3)o2)cc1 (stereo not drawn),inconclusive: 0.2% [signal inhibitor],–
COc1ccc(C)cc1NC(=O)Nc1cccc(OCc2cc(=O)n3ccc(C)cc3n2)c1,inconclusive: 8.59% [signal inhibitor],–
Cc1ccccc1OCC(=O)NCC(c1ccc(Cl)cc1)N1CCCCC1 (stereo not drawn),inconclusive: 2.28% [signal inhibitor],–
CCOC(=O)c1ccc(-n2c(CCC(=O)O)ccc2-c2ccccc2)cc1,inconclusive: 2.66% [signal inhibitor],–
COc1ccc(C(=O)CC2(O)C(=O)N(Cc3cccc(C(F)(F)F)c3)c3ccccc32)cc1 (stereo not drawn),inconclusive: 8.8% [signal inhibitor],–
